From patent US6030980A, “Agent for the treatment of infections” (priority 1994, dated 2000) come the findings set out here.

The test has as its system cytomegalovirus (CMV). Put plainly: Survival of thermally injured mice infected with cytomegalovirus (Experimental Example 7). The settings on record: 10 μg/kg/day oral.

Each structure is given as a SMILES string.

For the compound `COCC12CN(C)C3C4C(OC)C1C3(C(OC)CC2O)C1CC2(O)C(OC)C(O)C4(O)C1C2OC(=O)c1ccccc1` (stereo not shown) [benzoylmesaconine], the “protection against opportunistic infection of the thermally injured mice to CMV” value was “efficiently protected”.
